These results are taken from publication PMC4336329 (PLoS ONE, 2015).

The structures appear in SMILES notation. The whole screen tested about 310,000 compounds, of which about 14,000 (4.5%) showed an effect of 50% or more. The effect is printed as a negative number. This is one part of the list.
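Also: peak tail current of the secondary pulse compared with the same well before compound.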

For the assay, the target named is human ether-à-go-go-related gene (hERG) potassium channel (human, UniProt Q12809). As to the kind of experiment: primary screen, population patch clamp on CHO cells stably expressing hERG.
Sequence of human ether-à-go-go-related gene (hERG) potassium channel (Q12809 whole entry, looked up): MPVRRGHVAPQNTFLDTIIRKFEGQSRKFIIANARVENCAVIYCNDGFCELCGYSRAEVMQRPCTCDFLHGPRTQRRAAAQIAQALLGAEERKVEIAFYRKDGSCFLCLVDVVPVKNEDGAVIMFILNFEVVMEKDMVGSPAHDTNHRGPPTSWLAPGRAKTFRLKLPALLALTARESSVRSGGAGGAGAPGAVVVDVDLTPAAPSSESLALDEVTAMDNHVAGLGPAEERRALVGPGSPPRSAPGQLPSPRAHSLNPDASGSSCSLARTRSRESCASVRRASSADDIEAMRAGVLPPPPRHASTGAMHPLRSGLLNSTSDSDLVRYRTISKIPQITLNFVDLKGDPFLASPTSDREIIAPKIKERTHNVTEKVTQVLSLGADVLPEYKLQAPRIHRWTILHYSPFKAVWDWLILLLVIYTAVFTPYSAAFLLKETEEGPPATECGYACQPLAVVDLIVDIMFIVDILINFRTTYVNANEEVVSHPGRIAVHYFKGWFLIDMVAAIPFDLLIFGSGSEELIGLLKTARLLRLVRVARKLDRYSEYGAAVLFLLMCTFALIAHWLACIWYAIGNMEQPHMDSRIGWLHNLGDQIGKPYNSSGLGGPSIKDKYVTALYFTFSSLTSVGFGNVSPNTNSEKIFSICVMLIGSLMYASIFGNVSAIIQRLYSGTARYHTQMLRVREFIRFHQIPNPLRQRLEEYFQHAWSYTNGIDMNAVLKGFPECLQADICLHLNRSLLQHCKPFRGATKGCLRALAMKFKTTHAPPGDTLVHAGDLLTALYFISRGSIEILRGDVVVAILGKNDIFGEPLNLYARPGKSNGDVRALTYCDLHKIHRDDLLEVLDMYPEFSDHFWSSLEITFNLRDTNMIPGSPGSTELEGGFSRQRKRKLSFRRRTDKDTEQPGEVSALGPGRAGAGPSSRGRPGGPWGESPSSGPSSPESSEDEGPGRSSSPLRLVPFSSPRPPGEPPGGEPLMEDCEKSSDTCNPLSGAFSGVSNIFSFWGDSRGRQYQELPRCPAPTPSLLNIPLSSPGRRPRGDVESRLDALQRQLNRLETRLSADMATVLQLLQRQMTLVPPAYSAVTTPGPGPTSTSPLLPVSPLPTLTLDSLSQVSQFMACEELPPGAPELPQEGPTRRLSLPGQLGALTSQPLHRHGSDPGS
As for `CCOC(=O)Cn1ccc(NC(=O)c2ccc(F)cc2)n1`, the “hERG current change (%, negative = inhibition) at 10uM” value is recorded as 4.41%.

Consider `CSc1ccc(S(=O)(=O)NCc2ccc(Cl)cc2)cc1`, for which the “hERG current change (%, negative = inhibition) at 10uM” value was -10.5%. The value for `CCCn1c(=O)c2ccccc2n2c(SCCOc3ccccc3)nnc12` was -29.2%; that for `Cc1ccc(S(=O)(=O)Nc2ccc(O)c3cccnc23)cc1` was -11.2%.

On to `COC(=O)[C@H](CCSC)NC(=O)NCCc1ccc(F)cc1`, for which the “hERG current change (%, negative = inhibition) at 10uM” value was determined as 12.2%. The value for `O=C(O)c1ccc(N/N=C/C=C/c2ccc([N+](=O)[O-])o2)cc1` was 11.8%; that for `CCOC(=O)[C@H]1[C@H]2COc3ccc(Cl)cc3[C@@H]2N2C(=O)CNC(=O)[C@@]12C` was 14.5%. The value for `CCOC(=O)c1sc(NC(=O)C(CC)Sc2nc3ccccc3[nH]2)nc1C` (centres unmarked) was -1.19%.

Consider `CCOc1ccc(N2CC(C(=O)Nc3ccc4c(c3)OCCO4)CC2=O)cc1` (centres unmarked), for which the “hERG current change (%, negative = inhibition) at 10uM” value is reported as -1.6%. The value for `O=C(O)C1(Cc2nc3ccccc3[nH]2)CCCC1` was 24.7%. The figure for `Nc1cnn(C2CCCO2)c(=O)n1` (centres unmarked) is 14.3%; for `CN1CCCNc2nc3ccccc3nc21` it is -5.48%; for `CC(=O)Nc1ccc2c(c1)CCC2=O` it is -3.43%. The figure for `COC(=O)c1ccc(CSc2cc(C)c3cccc(C)c3n2)o1` is 21.2%. In the case of `Cc1ccc(CN2CCN(Cc3nc(C(C)C)cs3)CC2CCO)cc1` (centres unmarked), the “hERG current change (%, negative = inhibition) at 10uM” value is recorded as -68.5%. On to `Nc1nccnc1C(=O)N/N=C/c1ccco1`, for which the “hERG current change (%, negative = inhibition) at 10uM” value is 9.16%. The value for `COc1ccc(OC)c2sc(NC(=O)C(C)C)nc12` was -0.208%. The value for `Cc1ccc(NC(=O)NNC(=O)c2cc3ccccc3cc2O)cc1` was 25.2%; that for `COC(=O)c1ccccc1NC1CC(=O)N(c2c(C)cccc2C)C1=O` (centres unmarked) was -5.34%; that for `CCCc1cc(C(=O)NCc2cccs2)no1` was -8.27%. The figure for `CCN(CC)c1ccc(/C=C2\C(=N)N3N=C(CC(=O)N4CCOCC4)SC3=NC2=O)cc1` is 13.1%. In the case of `CCn1c(SCC(=O)N2CCc3ccccc32)nc2c(c1=O)SC(C)C2` (centres unmarked), the “hERG current change (%, negative = inhibition) at 10uM” value is -6.73%. As for `CC(C)NC(=O)NC(=O)COC(=O)c1ccccc1F`, the “hERG current change (%, negative = inhibition) at 10uM” value amounted to 5.41%. The value for `COc1ccc(CNC(=O)c2cc(-c3ccc(OC)c(OC)c3)on2)cc1` was 6.84%. The value for `CCn1c2ccc(C)cc2c2n[nH]c(=S)nc21` was 0.73%; that for `C=CCn1c(SCC(=O)c2ccc(CNC(C)=O)o2)nc2ccccc2c1=O` was -24.1%; that for `Cc1ccc(NC(=O)c2cc(NC(=O)c3ccco3)ccc2N2CCCCC2)cc1` was 13%.

As to `C#CCOCCOCCOCCNc1nc(N2CCN(C(=O)CCCCCCCCCCNC(=O)[C@H](CCCCN)n3cc(CCO)nn3)CC2)nc(N2CCN(C(=O)CCCCCCCCCCNC(=O)[C@H](CCCCN)n3cc(CCCC(=O)O)nn3)CC2)n1`, the “hERG current change (%, negative = inhibition) at 10uM” value is on record as 5.01%. `CC(=O)N1CCN(c2ccc(NC(=O)c3ccccc3Cl)cc2)CC1`: the “hERG current change (%, negative = inhibition) at 10uM” value worked out at 0.783%. The figure for `O=C(C1CCN(Cc2nc(-c3ccc(Cl)cc3)no2)CC1)N1CCOCC1` is -61.9%; for `COc1ccc(/C(O)=C2/C(=O)C(=O)N(CCCN(C)C)C2c2ccc(Cl)cc2)cc1OC` (centres unmarked) it is 12.2%. The value for `O=C(Nc1ccon1)c1cc2c(s1)CCCC2` was -19%; that for `Cc1ccc(/C=[N+](/[O-])C2SC(=S)N(C)C2(C)C)cc1` (centres unmarked) was 7.34%. The figure for `CCN(CC)C(=O)COc1ccc2oc(C)c(C(=O)OC)c2c1` is -7.15%. As for `Cc1cccc(N2C(=O)CCC2=O)c1`, the “hERG current change (%, negative = inhibition) at 10uM” value is reported as -1.04%.

Consider `CCCN(CCC)CCCNC(=O)Cn1cnc2sc(C)c(S(=O)(=O)N3CCC(C)CC3)c2c1=O`, for which the “hERG current change (%, negative = inhibition) at 10uM” value is 9.37%. The value for `O=C(COC(=O)CC1CCCC1)Nc1ccc(OC(F)F)cc1` was 9.71%; that for `Cc1cc(C(=O)N2CCN(c3ncccn3)CC2)nn1C` was -14.1%; that for `CCC(C)C(Nc1ncnc2scc(-c3ccccc3)c12)C(=O)O` (centres unmarked) was 23.4%. Turning to `COC(=O)C1=C(C)NC(=S)NC1c1ccc(OCC(=O)N2CC(C)OC(C)C2)c(OC)c1` (centres unmarked), the “hERG current change (%, negative = inhibition) at 10uM” value is on record as 18.4%. As to `CCC1(CC)C(=O)C(C)(C)C(=O)OC1c1cccs1` (centres unmarked), the “hERG current change (%, negative = inhibition) at 10uM” value is listed as -12.7%.

For `COc1cccc(C(=O)OCn2nnc3ccccc3c2=O)c1`, the “hERG current change (%, negative = inhibition) at 10uM” value is given as 0.671%. `O=C(c1ccco1)N1CCN(S(=O)(=O)c2cccc(C(F)(F)F)c2)CC1`: the “hERG current change (%, negative = inhibition) at 10uM” value is recorded as -8.61%. The value for `CC(NC(=O)c1ccccc1Cl)C1COc2ccccc2O1` (centres unmarked) was -9.88%; that for `CCN(CCNC(=O)C1CCN(c2nnc(-n3cccc3)s2)CC1)c1ccccc1` was -37.1%; that for `COc1cc(C2Nn3c(nnc3-c3ccccc3OC)S2)ccc1O` (centres unmarked) was 19.1%. The figure for `Cc1ccc(OCC(=O)NCC2CCCO2)c(C)c1` (centres unmarked) is 13.8%; for `CCCCCc1c(C)nc(N2CCOCC2)[nH]c1=O` it is 6.22%; for `C=CCn1c(SCC(=O)N(C)c2c(N)n(Cc3ccccc3)c(=O)[nH]c2=O)nnc1-c1ccccc1OC` it is 15.5%.

On to `CC(=O)Nc1ccc(NC(=O)CSc2nccn2Cc2ccc(Cl)cc2)cc1`, for which the “hERG current change (%, negative = inhibition) at 10uM” value was -9.56%. The value for `Cc1cccc(NS(=O)(=O)c2cccc(C(=O)N3CCN(S(=O)(=O)c4ccccc4)CC3)c2)c1` was -28.2%; that for `Cc1cc(C)c(C#N)c(OCC(=O)c2ccc(Br)cc2)n1` was 17.4%.

Consider `COc1cc(C(=O)OC(C)C(=O)Nc2ccc3c(c2)OCO3)ccc1OCc1c(C)noc1C` (centres unmarked), for which the “hERG current change (%, negative = inhibition) at 10uM” value is given as 15.8%. The value for `C=CCNC(=O)Cn1nc(-c2ccccc2)ccc1=O` was 1.12%; that for `Cc1csc(-c2coc3cc(O)cc(C)c3c2=O)n1` was 2.27%.

With `Cc1cc(C)c(S(=O)(=O)Nc2cccc(S(=O)(=O)N3CCOCC3)c2)c(C)c1`, the “hERG current change (%, negative = inhibition) at 10uM” value is on record as -6.2%.

In the case of `Cc1nn(Cc2ccccc2Cl)c(C)c1C(=O)NCC(c1cccs1)N1CCOCC1` (centres unmarked), the “hERG current change (%, negative = inhibition) at 10uM” value is reported as -9.56%.

Consider `O=c1[nH]c(=S)n(-c2ccccc2)c(O)c1/C=N/N1CCOCC1`, for which the “hERG current change (%, negative = inhibition) at 10uM” value is given as -2.11%. The value for `Cc1ccc2[nH]c3c(c2c1)CN(C(=O)CN1CCN(c2cccc(C)c2C)CC1)CC3.Cl` was 2.08%; that for `CC(C)C(=O)Nc1ccc2c(c1)nc(CCN1CCCCC1)n2C` was -0.778%; that for `COCCCC1CCN(C(=O)C2CCC(=O)N(Cc3ccccc3F)C2)CC1` (centres unmarked) was 1.69%.

`S=c1[nH]nc(-c2ccccn2)n1/N=C/c1ccc(Br)s1`: the “hERG current change (%, negative = inhibition) at 10uM” value is reported as 20.8%. The figure for `O=C(Nc1ccc2[nH]ncc2c1)c1ccccc1Br` is 7.25%; for `O=C(Nc1ccc(Cl)cc1)c1cccc(S(=O)(=O)Nc2ccccn2)c1` it is -6.23%; for `COC(=O)C1=CC(C(=O)c2cccs2)=NN(c2ccc(OC)cc2)C1C(=O)OC` (centres unmarked) it is -12.8%. In the case of `CC1(C)Cc2cccc(OCC(=O)NCc3ccccc3F)c2O1`, the “hERG current change (%, negative = inhibition) at 10uM” value is -5.79%. `CC(C)c1ccc(C(=O)Nc2nnc(S(=O)(=O)N3CCCCC3)s2)cc1`: the “hERG current change (%, negative = inhibition) at 10uM” value is reported as 20%. The figure for `Cc1cccc2sc(N3CCN(C(=O)c4cccs4)CC3)nc12` is -9.51%. The value for `Cc1sc(NC(=O)CN(CCc2ccccc2)C(=O)C2CC2)c(C(N)=O)c1C` was -12%. `O=C(c1ccccc1Br)N(Cc1ccccc1)c1ccccc1`: the “hERG current change (%, negative = inhibition) at 10uM” value is recorded as 14.6%.

For the compound `Cc1ccc(C(=O)CCC(=O)N(C)CC(=O)Nc2c(Cl)cccc2Cl)cc1`, the “hERG current change (%, negative = inhibition) at 10uM” value worked out at 8.91%. The value for `COc1ccccc1OCCCCCc1c(C)n[nH]c1C` was -4.16%. The value for `COc1cc(NC(=O)c2c(OC)cccc2OC)ccc1NC(=O)c1cc2ccccc2o1` was 10.4%; that for `O=C1C2C3C=CC(C3)C2C(=O)N1c1ccc2ccccc2c1` (centres unmarked) was 13.3%; that for `CCn1cc(C(=O)O)c(=O)c2cc(F)c(N3CCN(C(=S)NC(=O)c4ccccc4)CC3)cc21` was 13.7%.

As to `Cc1cc2oc(C(=O)Nc3c(C)n(C)n(-c4ccccc4)c3=O)c(C)c2cc1C`, the “hERG current change (%, negative = inhibition) at 10uM” value is reported as -24%.

Take `COc1ccc(S(=O)(=O)NCc2ccc(F)cc2)cc1OC`: the “hERG current change (%, negative = inhibition) at 10uM” value was 5.39%. The figure for `COc1ccccc1CN1CC(C(=O)NCc2cnn(C)c2)CCC1=O` (centres unmarked) is 13.6%; for `CCC(C)NC(=O)COc1ccc(S(=O)(=O)N2CCOCC2)cc1` (centres unmarked) it is -11.6%; for `CC1CCCN(C(=O)c2cccc(S(=O)(=O)N3CCCC3)c2)C1` (centres unmarked) it is -1.31%. The value for `Cc1cccc(NC(=O)Cc2nnc(NC(=O)Nc3ccccc3F)s2)c1` was -10.9%; that for `CC(C)CCC1(CCNC(=O)c2cccs2)CCOC(C)(C)C1` (centres unmarked) was -8.99%. The figure for `C=CCn1c(SCc2nc3c(c(=O)[nH]c(=O)n3CCCC)n2CCC)nnc1-c1ccccc1` is -60.5%.

As for `Cc1nn(-c2ccccc2)c(C)c1NC(=O)COC(=O)c1cc(Cl)ccc1O`, the “hERG current change (%, negative = inhibition) at 10uM” value is -12.9%. The figure for `COc1ccccc1OC(C)C(=O)N1CCC(Cc2ccccc2)CC1` (centres unmarked) is -12.6%; for `CCn1cc(C(=O)NNC(=O)c2ccc(Cl)cc2)c(=O)c2ccc(C)nc21` it is 22.6%; for `Cc1cc(Nc2ccccc2F)n2nc(C)nc2n1` it is 5.99%.

`Cc1cccc(C(=O)Oc2ccc3ccc(O)cc3c2)c1`: the “hERG current change (%, negative = inhibition) at 10uM” value is recorded as 14.6%. In the case of `CCOc1ccc(N2CC(C(=O)NCc3ccco3)CC2=O)cc1` (centres unmarked), the “hERG current change (%, negative = inhibition) at 10uM” value is on record as -8.63%.
